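Dose response: 5 concentrations. Exposure: 48 h. Format: 96-well plates. Endpoint: linear interpolation; highest concentration if not reached. GI50 is the concentration that inhibits growth by half. Definition used: TGI = concentration required for complete inhibition of growth.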 Peptide text beside a SMILES is read from it.

This is an account of results in PubChem BioAssay (NCI).

The test system of this experiment is NCI-H322M lung. Nature of the experiment: NCI anticancer screen, dose series, 48 h.
Consider `Cc1cc2nc3c4cc(C#N)ccc4n(CCN(C)C)c3nc2cc1C`, for which the GI50 is 1.03 µM and the TGI was determined as 5.37 µM.

As for `C#Cc1nc(C2=C(C)/C(=N/OCc3ccccc3)CC2)cs1`, the GI50 was more than 100 µM and the TGI was more than 100 µM.

Regarding `C#CCn1cccc1CNc1ccc(OC)cc1`, the GI50 was more than 100 µM and the TGI is more than 100 µM.

Consider `CCNC(=O)N1CCc2cc(OC)c(OCCc3ccc(OC)cc3)cc2C1c1ccc([N+](=O)[O-])cc1C` (configuration not stated), for which the GI50 was 3.76 µM and the TGI was more than 100 µM.

`CC(Nc1c(C#N)cnc2ccc(-c3cncc(O)c3)cc12)c1ccccc1` (configuration not stated): the GI50 is 1.75 µM and the TGI is 7.74 µM.

Take `CC(=O)NC(C)(C)C(=O)N1CCC[C@H]1C(=O)NC(C)(C)C(=O)N[C@@H](C)C(=O)NC(C)(C)C(=O)NC(C)(C)C(=O)N[C@@H](CCC(N)=O)C(=O)NC(C)(C)C(=O)N[C@H](C(=O)NC(C)(C)C(=O)NCC(=O)N[C@@H](CC(C)C)C(=O)NC(C)(C)C(=O)N1CCC[C@H]1C(=O)N[C@H](C(=O)NC(C)(C)C(=O)NC(C)(C)C(=O)N[C@@H](CCC(N)=O)C(=O)N[C@@H](CCC(N)=O)C(=O)N[C@H](CO)Cc1ccccc1)C(C)C)C(C)C` (HELM PEPTIDE1{[ac].[Aib].P.[Aib].A.[Aib].[Aib].Q.[Aib].V.[Aib].G.L.[Aib].P.V.[Aib].[Aib].Q.Q.[OC[C@H](Cc1ccccc1)N[*:1]]}$$$$V2.0): the GI50 was more than 4.25 µM and the TGI is more than 4.25 µM.
